The values below come from the RNAGym collection of RNA variant scans (doi:10.1073/pnas.2313332121).

This sample is rich in variants without activity. A value given as a limit tells only on which side of the number the result lay.

B1: TPR 5TU (parent)
chain: GGAUCUUCUCGAUCUAACAAAAAAGACAAAUCUGCCACAAAGCUUGAGAGCAUCUUCGGAUGCAGAGGCGGCAGCCUUCGGUGGCGCGAUAGCGCCAACGUUCUCAACUAUGACACGCAAAACGCGUGCUCCGUUGAAUGGAGUUUAUCAUG

The variants in this data set derive from B1. The experiment in a line: polymerase ribozyme fitness, log enrichment relative to wild type (log ratio); higher = more active; in vitro selection for triplet polymerase activity. In short, it runs like this: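 Both subunits of a heterodimeric triplet polymerase ribozyme were given their own mutant library, built by PCR and transcribed. Each library was annealed with a biotinylated primer, the partner subunit and triplets, incubated frozen at −7 °C, and its extended constructs gel-excised, captured on streptavidin beads and amplified by RT-PCR, all in one round done in triplicate. Fitness is the logarithm of genotype enrichment relative to wild-type enrichment, with replicates averaged by inverse-variance weighting. That logarithm is base 2, and Illumina-sequenced genotypes needed ≥10 input reads and ≥1 read per output.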
For the variant GGAUCUUCUCGAUCUAACAAAAAAGACAAAUCCGCAACAAAGCUUGAGAGCAUCUUCGGAUGCAGAGGCGGCAGCCUUCGGUGGAGCGAUAGCGCCAACGUUCUCUACUAUGUCACGCAAAACGCGUGCUCCGUUGAAUGGAGUUUAUCAUG, the “polymerase ribozyme fitness (log ratio)” value was ≤ -4.2. Next, GGAUCUUCUCGAUCUAACAAAAAAGACAAAUCCGCCACAAAGCUUGAGAGCAUCUUGGGAUGCAGAGGCGGCAGCCUUCGGUGGCGCAAUAACGCCAACGUUCUCAACUAUGACACGCAAAACGCGUGCUCCGUUGAAUGGAGUUAAUCAUG: ≤ -4.2. The same measure for GGAUCUUCUCGAUCUAACAAAAAAGACAAAUCGGGCACAAAGCUUGAGAGCAACUUCGGAUGCAGAGGCGGCAGCCUUCGGUGGAGUGAUAGCGCCAACGUUCUCAACUAUGACACGCAAAACGCGUGCUCCGUUGAAUGGAGUUUAUCAUG: ≤ -4.2. Next, GGAUCUUCUCGAUCUAACAAAAAAGACAAAUCCGCCACAAAGCUUGAGAACAUCUUCGGAUGCAGAGGCGGCAGCCUUCGGUGGCGCGAUAGCGCCAACGUUCUCAACUAUGACACGCAAAACGCGUGCUCCGUUGAAUGGAGUUUAUCAUG: -3.85. In the case of GGAUCUUCUCGAUCUAACAAAAAAGACAAAUCCGCCACAAAGCUUGAGAGCAUCUUCGAAUGCAGAGGCGGCAGCCUUCGGUGGCGCGAUAGCGCCAAUGUUCUCAACGAUGACACGCAAAACGCGUGCUCCGUUGAAUGGAGUUUAUCAUG, the “polymerase ribozyme fitness (log ratio)” value was ≤ -4.2.

Take GGAUCUUCUCGAUCUAACAAAAAAGACAAAUCGGCCAUAAAGCUUGAGAGAAUGUUAGGAUGCAGAGGCGGCAGCCUUGGGUGGCGUGAUAGCGCCAACGUUCUCAACUAUGACACGCAAAACGCGUACUCCGUUGAAUGGAGUUUAUCAUG: the “polymerase ribozyme fitness (log ratio)” value was ≤ -4.2. Next, GGAUCUUCUCGAUCUAACAAAAAAGACAAAUCCGCCACAAAGCUUGAGAAUAUCUUCGGAUGCAGAGGCGGCAGCCUUCGGUAGCGCGAUAGCGUCAACGUUCUCAACUAUGACACGCAAAACGCGUGCUCCGUUGAAUGGAUUUUAUCAUG: ≤ -4.2; GGAUCUUCUCGAUCUAACAAAAAAGACAAAUCGGCCACUAAGCUUGAGAACCUCUUCGGAUGCAGAGGCGGCAGCCUUCGGUGGCGCGAUAGCGGCGACGUUCUCAACUAUGACACGCAAAACGUGUGCUCCGUUGAAUGGCUUUUAUCAUG: ≤ -4.2.

In the case of GGAUCUUCUCGAUCUAACAAAAAAGACAAAUCCGCCACAAAGCUUGAGACCAUCAUCCGAUGCAGAGGCGGCAGCCUUCGGUGGAGCGAUAGCGCCAACGUUCUCAACUAUGACAUGCAAAACGCGUGCUCCGUUGAAUGGAGUUUAUCAUG, the “polymerase ribozyme fitness (log ratio)” value was ≤ -4.2. Next, GGAUCUUCUCGAUCUAACAAAAAAGACAAAUCCGCCACAAUACUUGAGAGCAUCUUCGGAUGCAGAGGCGGCAGCCUUCGGUGGCGCAAUAACGCCAACGUUCUCAACUAUGACACGCAAAACGCGUGCUCCGUUGAAUGGAGUUUAUCAUG: ≤ -4.2. The same measure for GGAUCUUCUCGAUCUAACAAAAAAGACAAAUCGGCCACAAAGCUUGAGAGCAUCUUCGGAUGUAGAGGCGGCAGCCUUCGGUGGCGCGAUAUAGCCAACGUUCUCAACUAUGCCACGCAAUACGCGUGCUCCGUUGAAUGGAGUUUAUCAUG: ≤ -4.2; for GGAUCUUCUCGAUCUAACAAAAAAGACAAAUCCGCCACAAAGCUUGAGAGCAUCUUCGGAUGCAGAGGCGGCAGCCUUCGGUGGCGCGAUAGCGCCUACGGUCUCAACUAUGAGACGCAAAACGCGUGCUCCGUUGAAUGGAGUUUAUCAUG: ≤ -4.2; for GGAUCUUCUCGAUCUAACAAAAAAGACAAAUCGGCCACAAAGCUUGAGAGCAUCUUCGGGUGCAGAGGCGGCAGCCUUCGGUGGAGCGAUAGCGCCUACGUUCUCAACUAUGACACGCAAAACGCGUGCUCCGUUGAAUGGCGUUUAUCAUG: ≤ -4.2. The same measure for GGAUCUUCUCGAUCUAACAAAAAAGACAAAUCGGCCACAAAGCUUGAGAGCAUAUUCGGAUGCAGAGGCGGCAGCCUUCGGUGGCAGGAUAGCGCCAACGUUCUCAACUAUGACACGCUAAUCGCGUGCUCCGUUGAAUGGACUUUCUCAUG: ≤ -4.2; for GGAUCUUCUCGAUCUAACAAAAAAGACAAAUCCGCCACAAAACUUGAGAGCAUCUUCGGAUGCAGAGGCGGCAGCCUUCGAUGGCGCGGUAGCGCCAACGUUCUCAACUAUGACACGCCAAACGCGUGCUCUGUUGAAUGGAGUUUAUCAUG: ≤ -4.2.

In the case of GGAUCUUCUCGAUCUAACAAAAAAGACAAAUCCGCCACAAAGCUUGAGAGCAUAUUCGGAUGCAGAGGCGGCAGCCUUCGGUCGCGCGAUAGCGCCAACGUUCUCAAGUAUGACACGCAAAACGCGUGCUCCGUUGAAUGGAGUUAAUAAUG, the “polymerase ribozyme fitness (log ratio)” value is ≤ -4.2. The same measure for GGAUCUUCUCGAUCUAACAAAAAAGACAAAUCAGCCACAAAGCUUGAGAGCAUCUACGGAUGCAGAGGCGGCAGCCUUGGGUGGCGCGAUAGCGCGAACGUUCUCAACUAUGACACGCAAAACGCGUGCUCCGUUGCAUGGAGUUUAUCAUG: ≤ -4.2; for GGAUCUUCUCGAUCUAACAAAAAAGACAAAUCGGACACAAAGCUUGAGAGCAUCUUCGGAUGCAGGGGCGGCAGCCUUCGGUGGCGCGAUAGUGCCAACGUUCGUAACUAUGACACGCAAAACGCGUGCUCCGGUGAAUGGAGUUUAUCAUG: ≤ -4.2.

As to GGAUCUUCUCGAUCUAACAAAAAAGACAAAUCGGCCACAAAGCUUGAGAGCAUCUUCGGAUGCAGAGGCGGCAGCCUUCGGUGGCGCGAUAGCGCCAACGUUGUCAACUAUUACACGCAAAACGCGUGCUCCUUUGAAUGGAGUUUAUCAAG, the “polymerase ribozyme fitness (log ratio)” value was ≤ -4.2.

Regarding GGAUCUUCUCGAUCUAACAAAAAAGACAAAUCCUCCACAAAGCUUGAGAUCAUCUUCCGAUGCAGAGGCGGCAGCCUUCGGUGGCGCGAUAGCGCCAACGUUGUCAACUAUGACACGCAGAACGCGUGCUCCGUUGAAUGGAGUUUAACAUG, the “polymerase ribozyme fitness (log ratio)” value was ≤ -4.2. For GGAUCUUCUCGAUCUAACAAAAAAGACAAAUCCGCCACAAAGCUUGAGAGCAUCUUCGAUUGCAGAGGCGGCAGCCUUCGGUGGCGCGAUAGCGCCAACGUUCUCAACUAUGACACGCAAAACGCGUGCUCCGUUGAAUGGAGUGUAUCAUG, the “polymerase ribozyme fitness (log ratio)” value is -4. The same measure for GGAUCUUCUCGAUCUAACAAAAAAGACAAAUCGGCCAGAAAGCUUGAGAGCAUCUUCGGAUGCAGAGGCGGCAGCCUUCGGUGGCGCGAUAACGCCAACGUUCUCAACUAUGACACGCAAAACGCGUGCUCCGUUGAAUGGAGUUUAUCCUG: ≤ -4.2; for GGAUCUUCUCGAUCUAACAAAAAAGACAAAUCCGCCACAAAGCUUGAGAGCAUUUUCGGAUGCAGAGGCGGCAGCCUUCGGUGGCGCGAUAGCGCUAACGUUCUCACCUAUGACACGCAAAACGCGUGCUCCGUUGAAUGGAGUUUAUCAUG: ≤ -4.2.

Regarding GGAUCUUCUCGAUCUAACAAAAAAGACAAAUCGGCCACAAAGAUUGAGAGCAUCUUCGGAUGCAGAGGCGGCAGCUUUCGGUGGCGCGAUAUCGCCAACGUUUUCAACUAUGACACGCAAAACGCGUGCUCCGUUGAAUGGAGUUUAACAUG, the “polymerase ribozyme fitness (log ratio)” value is ≤ -4.2. The same measure for GGAUCUUCUCGAUCUAACAAAAAAGACAAAUCAGCCACAAAGCUUGAGACCAUCUUCGGAAGCAGAGGCGGCCGCCUUCGGUGGCGCGAUAGAGCCAACGUUCUCAACUAUGACACGCAAAACGCGUGCUCCGUUGAAUGGAGUUUAUCAUG: ≤ -4.2; for GGAUCUUCUCGAUCUAACAAAAAAGACAAAUCGGCCACAAAGCUUGAGAGCUUCUUCGGAUGCAGAGGCGGCAGUCUUCGGUGGUGCGAUAGCGCCAACGUUCUCAACUAUGACACGCAAAACGCGUGCUCCGUUGAAUGGAGAUUAUCAUG: ≤ -4.2; for GGAUCUUCUCGAUCUAACAAAAAAGACAAAUCCGCCACAAAACUUGAGAGCAUCUUCGGAUGCAGAGGCGGCAGCCUUCGGUGGCGCGAUUGGGCCAACGUUCUCAACUAUGACACGCAAAACGCGUGCUCCGUUGAAUGGCGUUUAUCAUG: ≤ -4.2. Next, GGAUCUUCUCGAUCUAACAAAAAAGACAAAUCGGCCACAAAGCUUGAGAGCAUCUUAGGAUGCAGAGGCGGCAGCCUUCGGUGACGCGUUAGCGCCAACGUUCUCAAAUCUGACACGCAAAACGCGUGCUCCGUUGAAUGGAGUUCAUCAUG: ≤ -4.2; GGAUCUUCUCGAUCUAACAAAAAAGACAAAUCCGCCACAAAGUUUGAGAGCAUCUUCGGAUGCAGAGGCGGCAGCCUUCGGUGGCGCGAUAGCGCCAACGUUCUCAACUAUGACACGCAAAACGCUUGCUCCGUUGAAUGGAGUUUAUCAUG: ≤ -4.2; GGAUCUUCUCGAUCUAACAAAAAAGACAAAUCGGCCACAAAGCUUGAGAGCAUAUUCGGAUGCAGAGGCGGCAACCUUCGGUGGCGCGAUAGCGCCAACGUUCUCAACUAUGACACGCAAAACGCGUGCUCCGUUGAAUGGAGUUUAUCAUG: ≤ -4.2. Next, GGAUCUUCUCGAUCUAACAAAAAAGACAAAUCAGCCACAAAGCAUUAGAGCAUCUUCGAAUGCAGAGGCGGCAGCCUUCGGUGGCGCGAUAGGGCCAACGUUUACAACUAUGACACGCAAAACGCGUGCUCCGUAGAAUGGAGUUUAUGAUG: ≤ -4.2; GGAUCUUCUCGAUCUAACAAAAAAGACAAAUCGGCCACAAAGCUUGAGAGCAUCUUCGGAUGCAGAGGCGGCAGCCUUCGGUGGCGCGAUAGGGCCAACGUUCUCAACUAUGACACGCAGAACGCGUGCUCCGUUGAAUGGAGUUUAUCAUG: ≤ -4.2. For the variant GGAUCUUCUCGAUCUAACAAAAAAGACAAAUCCGCCACAAAGCUUGAGAGCAUCUUCGGAUGCAGAGACGGCAGCCUUCGGUGGCGCGAUAGCGCCAACGUUCUCAACUAUGACACGCAAAACGCGUGCUCCGUUGAAUGGAGUUUAUCAUG, the “polymerase ribozyme fitness (log ratio)” value is -3.97. The same measure for GGAUCUUCUCGAUCUAACAAAAAAGACAAAUCGGCCACAAAGCUUGAGAGCAUCUUCGGAUGCAGAGGCGGCAGCCUUCGGUGGCGCGAUAGCGGCAACGUUCUCAACUAUGACAAGCAAAACGCGUGCUCCGUUGAAUGGAGUUUAUCAUG: -4.15; for GGAUCUUCUCGAUCUAACAAAAAAGACAAAUCGGGCACAAAGCUUGAGAGCAUCUUCGGGUGCAGAGGCGGCAGCCUUCGGUGGCGCGAUAGCGCCAACGUUCUCAGCUAUGACACGCAAAACGCGUGCUCCGUUGAAUGGAGUUUAUCAUG: ≤ -4.2.

With GGAUCUUCUCGAUCUAACAAAAAAGACAAAUCAGCCACAAAGCUUGAGAGCAACUUCGGAUGCAGAGGCGGCAGCCUUCGGUGGCGCGAUAGCGCCAACGUUCUCAACUAUGACACGCAAAACGCGUGCUCCGUUGAAUGGAGUUUACCAUG, the “polymerase ribozyme fitness (log ratio)” value was ≤ -4.2. The same measure for GGAUCUUCUCGAUCUAACAAAAAAGACAAAUCGGCCACAAAGCUUGAGAGCAUCUUCGGAUGCAGAGGCGGCAGCCUUCGGUGGCGCGAUAGUGCCAACGUUCUCAACUAUGACAGGCAAAACGCGUGCUCCGUUGAAUGGAGUUUAUCAUG: ≤ -4.2. The same measure for GGAUCUUCUCGAUCUAACAAAAAAGACAAAUCGGCCACAAAGCUUGAGAGCAUCUUCGGAUGCAGAGGCGGCAGGCUUCGGUGGCGCGAUAGCGCUAACGUUCUCAACUAUGACACGCAAGACGCGUGCUCCGUUGAAUGGUGUUUAUCAUG: ≤ -4.2.
